Test results: PubChem BioAssay AID743279 (National Center for Advancing Translational Sciences (NCATS), 2014)
The whole screen tested about 360,000 compounds, of which about 17,000 (4.7%) were called active. Inconclusive results, whose numbers are uncertain, are shown with a selection of clear calls. No stated cut-off is given here; in the data, active means activity change below about -50%; inconclusive means mostly about -30% to -49%; inactive means weaker than that.

assay: qHTS for Inhibitors of Inflammasome Signaling: IL-1-beta AlphaLISA Primary Screen; details: THP-1 LPS/ATP IL-1B secretion, 16 h; at 57.5 µM, stronger effect = lower value
Summary of the method: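 THP-1 cells pretreated 1 hr with compounds (up to 57.5 uM final), then stimulated with LPS (250 ng/mL final) plus ATP (1.25 mM final); secreted IL-1B measured by AlphaLISA after 16 hr, decreased signal indicating inhibition.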
On the % scale 0 is the no-effect control and ±100 the full control effect.

Activity change, active:
Cc1[nH][nH]c(=O)c1C(c1ccccc1[N+](=O)[O-])C(C#N)C#N (stereo not drawn) -146%
COc1ccc(Nc2nnc(Cc3ccncc3)c3ccccc23)c(OC)c1 -57%
O=C(N/N=C/c1cccc2ccccc12)c1cccc(F)c1 -63.1%
C=CC(=O)N1C/C(=C/c2ccc(Cl)cc2)C(=O)/C(=C\c2ccc(Cl)cc2)C1 -115%
Cc1ccc(S(=O)(=O)CCC(=O)NCCN2C(=O)S/C(=C/c3ccc(F)cc3)C2=O)cc1 -62.4%
O=C(CSc1nnc(CNC(=O)c2ccco2)o1)c1ccc(Cl)cc1 -106%
COc1ccc(Oc2c(Cl)cnn(-c3ccc(C)cc3)c2=O)cc1 -114%
Cc1ccc(C(C)C)c(OCc2ccc(C(=O)N/N=C/c3ccc(O)c(O)c3)cc2)c1 -100%
O=C(NC1CCCCC1)C(c1cccnc1)N(C(=O)CCl)c1ccc(F)cc1 (stereo not drawn) -103%

Activity change, inconclusive:
COc1ccc2c(c1)CCN=C2Cc1ccc(OC)c(OC)c1 -40.6%
COCCN1C[C@@H](CO)O[C@@H](n2cnc3c(NC4CC4)ncnc32)C1 -31.3%
COC(=O)c1c(-c2cccc3ccccc23)csc1NC(=O)Cc1ccc(OC)c(OC)c1 -39.9%
O=C(NC1CCCC1)C(c1cccs1)N(C(=O)c1ccco1)c1ccc2c(c1)OCO2 (stereo not drawn) -45.3%
COc1ccc(-n2c(=S)[nH]c3cc(C(=O)Nc4ccc(F)cc4)ccc3c2=O)c(OC)c1 -41.9%
CCC1CCCCN1CCN1C(=O)C2C(C(=O)Nc3ccc(OC)cc3)C3C=CC2(O3)C1C(=O)NC1CCCCC1 (stereo not drawn) -38.2%
COc1ccc(CNC(=O)c2cc3c(s2)CN(Cc2ccccc2)C3)cc1 -38.6%
Cc1cc2nc(=O)c(/C=C3\C=Nc4ccccc43)c(N)n2o1 -32.4%
CC(=O)Oc1ccc(C(=O)Nc2ccc3c(c2)OCCO3)cc1 -43%
COc1ccc(-c2cc(=O)c3c(OC)c(OC)c(OC)c(OC)c3o2)cc1 -32.2%
NC(c1ccccc1)c1csc(Nc2ccc(C(F)(F)F)cn2)n1 (stereo not drawn) -48.2%

Activity change, inactive:
CC(OC(=O)Cn1[nH]c(=O)c2ccccc2c1=O)C(=O)NC1(C#N)CCCCC1 (stereo not drawn) 25.9%
Cc1cc([N+](=O)[O-])nn1CC(=O)Nc1sc2c(c1C(N)=O)CCCC2 21.7%
Cc1ccccc1S(=O)(=O)Cc1ccc(C(=O)NCCc2ccccc2)o1 -1.13%
